Counter-ions that a name gives are not always drawn.
Assays:
Experiment in all cases: microbe, parasite or virus in culture
HIV-1 V106A RT mutant = conditions: Human immunodeficiency virus 1, HeLa, read-out: V106A activity level, HeLa-CD4-LTR-β-gal cells, V106A virus
HIV-1 K103N RT mutant = conditions: Human immunodeficiency virus 1, HeLa, read-out: K103N activity level, HeLa-CD4-LTR-β-gal cells, K103N virus
HIV-1 Y181C RT mutant = conditions: Human immunodeficiency virus 1, HeLa, read-out: Y181C activity level, HeLa-CD4-LTR-β-gal cells, Y181C virus

| SMILES | IC50 (HIV-1 V106A RT mutant) | IC50 (HIV-1 K103N RT mutant) | IC50 (HIV-1 Y181C RT mutant) |
| --- | --- | --- | --- |
| Cn1c(C(=O)NCc2ccc(Cl)c(Oc3cc(Cl)cc(C#N)c3)c2F)cc2ccccc21 [Example 45, N-({4-chloro-3-[(3-chloro-5-cyanophenyl)oxy]-2-fluorophenyl}methyl)-1-methyl-1H-indole-2-carboxamide] | > 1000 nM | > 1000 nM | > 1000 nM |
| N#Cc1cc(Cl)cc(Oc2c(Cl)ccc(CNC(=O)c3cc[nH]n3)c2F)c1 [Example 95, N-({4-chloro-3-[(3-chloro-5-cyanophenyl)oxy]-2-fluorophenyl}methyl)-1H-pyrazole-3-carboxamide] | > 1000 nM | 10 to 1000 nM | 10 to 1000 nM |
| COc1ccc2cc(C(=O)NCc3ccc(Cl)c(Oc4cc(Cl)cc(C#N)c4)c3)[nH]c2c1 [Example 7, N-({4-chloro-3-[(3-chloro-5-cyanophenyl)oxy]phenyl}methyl)-6-(methyloxy)-1H-indole-2-carboxamide] | > 1000 nM | > 1000 nM | > 1000 nM |
| N#Cc1cc(Cl)cc(Oc2c(Cl)ccc(CNC(=O)c3cc4ccc(N)cc4[nH]3)c2F)c1 [Example 123, 6-amino-N-({4-chloro-3-[(3-chloro-5-cyanophenyl)oxy]-2-fluorophenyl}methyl)-1H-indole-2-carboxamide trifluoroacetate] | 10 to 1000 nM | < 10 nM | < 10 nM |
| CS(=O)(=O)c1ccc(C(=O)NCc2ccc(Cl)c(Oc3cc(Cl)cc(C#N)c3)c2F)c(Cl)c1 [Example 16, 2-chloro-N-({4-chloro-3-[(3-chloro-5-cyanophenyl)oxy]-2-fluorophenyl}methyl)-4-(methylsulfonyl)benzamide] | 10 to 1000 nM | 10 to 1000 nM | 10 to 1000 nM |
| N#Cc1cc(Cl)cc(Oc2c(Cl)ccc(CNC(=O)c3ccc(S(N)(=O)=O)cc3Cl)c2F)c1 [Example 14, 4-(aminosulfonyl)-2-chloro-N-({4-chloro-3-[(3-chloro-5-cyanophenyl)oxy]-2-fluorophenyl}methyl)benzamide] | 10 to 1000 nM | 10 to 1000 nM | 10 to 1000 nM |
| N#Cc1cc(Cl)cc(Oc2c(Cl)ccc(CNC(=O)c3csc(-c4ccncc4)n3)c2F)c1 [Example 88, N-({4-chloro-3-[(3-chloro-5-cyanophenyl)oxy]-2-fluorophenyl}methyl)-2-(4-pyridinyl)-1,3-thiazole-4-carboxamide trifluoroacetate] | 10 to 1000 nM | 10 to 1000 nM | 10 to 1000 nM |
| CN(C)CCOc1ccc2[nH]c(C(=O)NCc3ccc(Cl)c(Oc4cc(Cl)cc(C#N)c4)c3F)cc2c1 [Example 105, N-({4-chloro-3-[(3-chloro-5-cyanophenyl)oxy]-2-fluorophenyl}methyl)-5-{[2-(dimethylamino)ethyl]oxy}-1H-indole-2-carboxamide] | 10 to 1000 nM | < 10 nM | < 10 nM |
| COc1cc2cc(C(=O)NCc3ccc(Cl)c(Oc4cc(Cl)cc(C#N)c4)c3F)[nH]c2cn1 [Example 46, N-({4-chloro-3-[(3-chloro-5-cyanophenyl)oxy]-2-fluorophenyl}methyl)-5-(methyloxy)-1H-pyrrolo[2,3-c]pyridine-2-carboxamide trifluoroacetate] | 10 to 1000 nM | 10 to 1000 nM | 10 to 1000 nM |
| CC(C)(C)OC(=O)N1CCO[C@@H](COc2ccc3[nH]c(C(=O)NCc4ccc(Cl)c(Oc5cc(Cl)cc(C#N)c5)c4F)cc3c2)C1 [Example 23, 1,1-dimethylethyl (2R)-2-{[(2-{[({4-chloro-3-[(3-chloro-5-cyanophenyl)oxy]-2-fluorophenyl}methyl)amino]carbonyl}-1H-indol-5-yl)oxy]methyl}-4-morpholinecarboxylate] | 10 to 1000 nM | 10 to 1000 nM | 10 to 1000 nM |
| Cn1ccnc1C(=O)NCc1ccc(Cl)c(Oc2cc(Cl)cc(C#N)c2)c1F [Example 72, N-({4-chloro-3-[(3-chloro-5-cyanophenyl)oxy]-2-fluorophenyl}methyl)-1-methyl-1H-imidazole-2-carboxamide trifluoroacetate] | > 1000 nM | 10 to 1000 nM | 10 to 1000 nM |
| CN(Cc1ccc(Cl)c(Oc2cc(Cl)cc(C#N)c2)c1F)C(=O)c1ccc[nH]1 [Example 129, N-({4-chloro-3-[(3-chloro-5-cyanophenyl)oxy]-2-fluorophenyl}methyl)-N-methyl-1H-pyrrole-2-carboxamide] | < 10 nM | < 10 nM | < 10 nM |
| N#Cc1cc(Cl)cc(Oc2c(Cl)ccc(CNC(=O)c3cc4cccc(N)c4[nH]3)c2F)c1 [Example 113, 7-amino-N-({4-chloro-3-[(3-chloro-5-cyanophenyl)oxy]-2-fluorophenyl}methyl)-1H-indole-2-carboxamide] | 10 to 1000 nM | < 10 nM | 10 to 1000 nM |
| COc1ccc(C(=O)NCc2ccc(Cl)c(Oc3cc(Cl)cc(C#N)c3)c2)c(OC)c1 [Example 6, N-({4-chloro-3-[(3-chloro-5-cyanophenyl)oxy]phenyl}methyl)-2,4-bis(methyloxy)benzamide] | > 1000 nM | > 1000 nM | > 1000 nM |
| COc1ccc2cc(C(=O)NCc3ccc(Cl)c(Oc4cc(Cl)cc(C#N)c4)c3F)[nH]c2c1 [Example 21, N-({4-chloro-3-[(3-chloro-5-cyanophenyl)oxy]-2-fluorophenyl}methyl)-6-(methyloxy)-1H-indole-2-carboxamide] | 10 to 1000 nM | 10 to 1000 nM | 10 to 1000 nM |
| CSc1ncccc1C(=O)NCc1ccc(Cl)c(Oc2cc(Cl)cc(C#N)c2)c1F [Example 86, N-({4-chloro-3-[(3-chloro-5-cyanophenyl)oxy]-2-fluorophenyl}methyl)-2-(methylthio)-3-pyridinecarboxamide trifluoroacetate] | > 1000 nM | 10 to 1000 nM | 10 to 1000 nM |
| Cc1nc(Cl)c(C(=O)NCc2ccc(Cl)c(Oc3cc(Cl)cc(C#N)c3)c2F)[nH]1 [Example 137, 4-chloro-N-({4-chloro-3-[(3-chloro-5-cyanophenyl)oxy]-2-fluorophenyl}methyl)-2-methyl-1H-imidazole-5-carboxamide] | < 10 nM | < 10 nM | < 10 nM |
| CCN(CC)S(=O)(=O)c1c[nH]c(C(=O)NCc2ccc(Cl)c(Oc3cc(Cl)cc(C#N)c3)c2F)c1 [Example 76, N-({4-chloro-3-[(3-chloro-5-cyanophenyl)oxy]-2-fluorophenyl}methyl)-4-[(diethylamino)sulfonyl]-1H-pyrrole-2-carboxamide trifluoroacetate] | > 1000 nM | 10 to 1000 nM | 10 to 1000 nM |
| N#Cc1cc(Cl)cc(Oc2c(Cl)ccc(CNC(=O)c3nc4ccccc4[nH]3)c2F)c1 [Example 35, N-({4-chloro-3-[(3-chloro-5-cyanophenyl)oxy]-2-fluorophenyl}methyl)-1H-benzimidazole-2-carboxamide] | 10 to 1000 nM | 10 to 1000 nM | 10 to 1000 nM |
| N#Cc1cc(Cl)cc(Oc2c(Cl)ccc(CNC(=O)c3csc(-c4cccnc4)n3)c2F)c1 [Example 98, N-({4-chloro-3-[(3-chloro-5-cyanophenyl)oxy]-2-fluorophenyl}methyl)-2-(3-pyridinyl)-1,3-thiazole-4-carboxamide trifluoroacetate] | 10 to 1000 nM | 10 to 1000 nM | 10 to 1000 nM |
| N#Cc1cc(Cl)cc(Oc2c(Cl)ccc(CNC(=O)c3cc4cc(OC(F)(F)F)ccc4[nH]3)c2F)c1 [Example 27, N-({4-chloro-3-[(3-chloro-5-cyanophenyl)oxy]-2-fluorophenyl}methyl)-5-[(trifluoromethyl)oxy]-1H-indole-2-carboxamide] | 10 to 1000 nM | 10 to 1000 nM | 10 to 1000 nM |
| CCc1nc(Cl)c(C(=O)NCc2ccc(Cl)c(Oc3cc(Cl)cc(C#N)c3)c2F)[nH]1 [Example 77, 4-chloro-N-({4-chloro-3-[(3-chloro-5-cyanophenyl)oxy]-2-fluorophenyl}methyl)-2-ethyl-1H-imidazole-5-carboxamide trifluoroacetate] | < 10 nM | < 10 nM | < 10 nM |
| N#Cc1cc(Cl)cc(Oc2c(Cl)ccc(CNC(=O)c3cc4cc(NC(=O)CN)ccc4[nH]3)c2F)c1 [Example 120, N-({4-chloro-3-[(3-chloro-5-cyanophenyl)oxy]-2-fluorophenyl}methyl)-5-(glycylamino)-1H-indole-2-carboxamide trifluoroacetate] | 10 to 1000 nM | < 10 nM | 10 to 1000 nM |
| COc1ccc2[nH]c(C(=O)NCc3ccc(Cl)c(Oc4cc(Cl)cc(C#N)c4)c3F)c(NC(C)=O)c2c1 [Example 56, 3-(acetylamino)-N-({4-chloro-3-[(3-chloro-5-cyanophenyl)oxy]-2-fluorophenyl}methyl)-5-(methyloxy)-1H-indole-2-carboxamide trifluoroacetate] | > 1000 nM | > 1000 nM | > 1000 nM |
| N#Cc1cc(Cl)cc(Oc2cc(CNC(=O)c3ccc(Cl)c(S(N)(=O)=O)c3)ccc2Cl)c1 [Example 5, 3-(aminosulfonyl)-4-chloro-N-({4-chloro-3-[(3-chloro-5-cyanophenyl)oxy]phenyl}methyl)benzamide trifluoroacetate] | > 1000 nM | > 1000 nM | > 1000 nM |
| CC(=O)NCc1ccc2cc(C(=O)NCc3ccc(Cl)c(Oc4cc(Cl)cc(C#N)c4)c3F)[nH]c2c1 [Example 74, 6-[(acetylamino)methyl]-N-({4-chloro-3-[(3-chloro-5-cyanophenyl)oxy]-2-fluorophenyl}methyl)-1H-indole-2-carboxamide trifluoroacetate] | < 10 nM | < 10 nM | < 10 nM |
| Cc1cc(C)c(C(=O)NCc2ccc(Cl)c(Oc3cc(Cl)cc(C#N)c3)c2F)[nH]1 [Example 62, N-({4-chloro-3-[(3-chloro-5-cyanophenyl)oxy]-2-fluorophenyl}methyl)-3,5-dimethyl-1H-pyrrole-2-carboxamide trifluoroacetate] | < 10 nM | < 10 nM | < 10 nM |
